Assay results from the supplement of paper PMC10441789.
This is one part of the list. Antibody binding of pooled human sera (four to six donors per pool; dilution not stated) to peptides of the Trypanosoma cruzi antigen TSSA on microarrays. Quantile-normalised fluorescence in arbitrary units, mean of duplicate arrays; higher = more binding. No active / inactive call. The uninfected pools are read here as the healthy donors of the same country. The strongest signals lie near the top of the scale (about 60,000).

How the values were obtained:
Experiment in all cases: antibody binding signal (normalised fluorescence) (arbitrary fluorescence units); higher = stronger serum antibody binding to peptide
[1] = tested on: pooled sera of chronic Chagas disease patients, Argentina
Experimental: (§1)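 Microarray of 15-residue peptides over residues 30-55 of Trypanosoma cruzi TSSAII, each with 1 to 10 substitutions at naturally variable positions, probed with one serum pool per country.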

[2] = tested on: pooled sera of chronic Chagas disease patients, Bolivia
Experimental: as §1

[3] = tested on: pooled sera of chronic Chagas disease patients, Brazil
Experimental: as §1

[4] = tested on: pooled sera of chronic Chagas disease patients, Colombia
Experimental: as §1

[5] = tested on: pooled sera of chronic Chagas disease patients, Mexico
Experimental: as §1

[6] = tested on: pooled sera of chronic Chagas disease patients, USA
Experimental: as §1

[7] = tested on: pooled sera of uninfected people, Argentina
Experimental: as §1

[8] = tested on: pooled sera of uninfected people, Bolivia
Experimental: as §1

[9] = tested on: pooled sera of uninfected people, Brazil
Experimental: as §1

[10] = tested on: pooled sera of uninfected people, Mexico
Experimental: as §1

[11] = tested on: pooled sera of uninfected people, USA
Experimental: as §1

Row | Sequence | antibody binding signal [1] | antibody binding signal [2] | antibody binding signal [3] | antibody binding signal [4] | antibody binding signal [5] | antibody binding signal [6] | antibody binding signal [7] | antibody binding signal [8] | antibody binding signal [9] | antibody binding signal [10] | antibody binding signal [11]
1 | TPPSGTEKKPATGEA | 45500 | 33400 | 38700 | 574 | 33000 | 18700 | 1070 | 801 | 1080 | 525 | 504
2 | EKKPAAGEAPSQPGA | 7440 | 19800 | 40200 | 475 | 315 | 13800 | 148 | 687 | 263 | 351 | 800
3 | GTEKKTATGETPSPS | 768 | 721 | 860 | 574 | 748 | 8140 | 212 | 701 | 233 | 384 | 2060
4 | NKPATGETPSPPGAS | 16000 | 27700 | 34100 | 252 | 226 | 22400 | 525 | 1230 | 457 | 1470 | 1810
5 | TPPSGKENKTATGET | 21900 | 10600 | 3290 | 546 | 2970 | 2480 | 1010 | 1110 | 216 | 176 | 178
6 | TDNKTAAGGAPSPPG | 239 | 303 | 309 | 4440 | 419 | 662 | 249 | 250 | 630 | 254 | 186
7 | TEKKAATGEAPSQSG | 24400 | 37300 | 30700 | 356 | 609 | 26200 | 645 | 176 | 243 | 298 | 285
8 | STPPSGTDKKTATGG | 34500 | 4300 | 35000 | 8790 | 28400 | 8380 | 838 | 142 | 198 | 648 | 256
9 | GTDNKAATGGTPSPP | 356 | 873 | 31300 | 403 | 551 | 205 | 222 | 556 | 1870 | 156 | 91.6
10 | GTDKKPAAGGAPSQP | 282 | 242 | 6440 | 9950 | 829 | 972 | 175 | 307 | 328 | 306 | 172
11 | SGKEKKTATGEAPSQ | 13500 | 2330 | 10500 | 1530 | 2280 | 17300 | 364 | 196 | 102 | 140 | 122
12 | PPSGTDKKTAAGETP | 3960 | 7630 | 15300 | 2440 | 27200 | 1480 | 251 | 401 | 309 | 1220 | 183
13 | KDNKTAAGETPSPPG | 980 | 275 | 508 | 2210 | 270 | 890 | 535 | 273 | 237 | 226 | 1120
14 | PPSGTENKTAAGEAP | 44800 | 38900 | 44700 | 303 | 2730 | 14200 | 1650 | 422 | 345 | 278 | 518
15 | GTENKPATGGAPSPS | 42600 | 21500 | 8640 | 619 | 1870 | 3340 | 500 | 2230 | 740 | 340 | 216
16 | KEKKPAAGETPSPPG | 184 | 218 | 611 | 181 | 147 | 765 | 106 | 114 | 93.1 | 105 | 508
17 | EKKTATGEAPSQPGA | 13900 | 17600 | 39900 | 406 | 1130 | 18800 | 295 | 824 | 159 | 341 | 826
18 | SGKENKTATGEAPSQ | 14400 | 25200 | 24300 | 2250 | 2250 | 20300 | 6920 | 2570 | 273 | 731 | 136

Row | Sequence | antibody binding signal [1] | antibody binding signal [2] | antibody binding signal [3] | antibody binding signal [4] | antibody binding signal [5] | antibody binding signal [6] | antibody binding signal [7] | antibody binding signal [8] | antibody binding signal [9] | antibody binding signal [10] | antibody binding signal [11]
19 | GKENKPAAGEAPSQS | 5170 | 7340 | 30600 | 6860 | 7370 | 20600 | 797 | 353 | 133 | 280 | 101
20 | TEKKAAAGETPSPPG | 605 | 239 | 1150 | 422 | 355 | 2520 | 137 | 237 | 225 | 262 | 1150
21 | PSGKDKKAAAGGAPS | 3740 | 840 | 2970 | 7610 | 6100 | 5320 | 131 | 305 | 108 | 83.5 | 100
22 | TPPSGKENKAAAGGT | 19300 | 1150 | 1740 | 1540 | 5980 | 3910 | 3470 | 1210 | 1280 | 153 | 205
23 | GKDKKAAAGEAPSPS | 267 | 239 | 285 | 594 | 611 | 9300 | 179 | 78.6 | 98.1 | 77.1 | 94
24 | SGKDKKAAAGGAPSP | 452 | 170 | 269 | 2350 | 1190 | 1170 | 115 | 67.4 | 85.7 | 82.9 | 94.6
25 | GTDNKAAAGGTPSPP | 258 | 173 | 27100 | 2550 | 234 | 1050 | 136 | 669 | 2750 | 172 | 91.9
26 | PPSGKDKKAATGETP | 1320 | 479 | 1190 | 1300 | 17200 | 6720 | 529 | 439 | 120 | 120 | 158
27 | TDNKAAAGGTPSPPG | 234 | 146 | 223 | 2770 | 209 | 863 | 113 | 218 | 962 | 131 | 95.5
28 | TPPSGTDKKAATGGA | 12800 | 4510 | 30200 | 5700 | 19800 | 1960 | 568 | 597 | 169 | 1170 | 431
29 | STPPSGTDNKAAAGE | 47500 | 42900 | 46600 | 2700 | 21900 | 36400 | 1120 | 579 | 954 | 201 | 202
30 | TPPSGTENKTAAGET | 39900 | 38600 | 44400 | 159 | 1860 | 16900 | 1820 | 286 | 375 | 273 | 235
31 | SGTENKTATGGTPSQ | 36300 | 14500 | 21100 | 876 | 743 | 5650 | 687 | 436 | 275 | 491 | 181
32 | SGKDKKTAAGETPSP | 568 | 233 | 458 | 846 | 980 | 2030 | 160 | 105 | 89.6 | 83.3 | 214
33 | TPPSGTDKKTATGET | 8720 | 10800 | 24700 | 3430 | 19600 | 1500 | 233 | 156 | 357 | 532 | 142
34 | GTDKKAATGEAPSQS | 20600 | 20800 | 28600 | 3220 | 1210 | 22400 | 393 | 188 | 129 | 224 | 202
35 | SGKDKKAAAGEAPSQ | 565 | 3070 | 2190 | 1500 | 809 | 7110 | 126 | 85.8 | 103 | 81.5 | 83.3
